# Source: PubChem BioAssay
# The shares of active, inactive and inconclusive entries below differ from those in the screen. Active and inactive are the calls of the source.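 How the source made its calls: active means viability at or under a set limit in both replicates, limit being median viability minus 3 SD (cut at about 48% in these data, passing the limit was not always enough); inconclusive means at or under the limit in just one replicate; inactive means at or above the limit in both replicates.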
# Experiment: H69AR cell proliferation blockers – human, duplicate replicates, primary screen (AID 580);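 further: 100% = mean luminescence of untreated wells and 0% = no signal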
# Conditions: H69AR lung tumor cells viability, ATP luminescence, 72 h; at 10 µM; active compounds read low
row,Compound,viability
1,Cc1ccc(S(=O)(=O)NCCNC(=O)c2ccccc2)cc1,inactive: 99.2%
2,Cc1cc(C(=O)Nc2cc(C)n(Cc3ccc(Cl)cc3)n2)no1,inactive: 94.5%
3,O=C(Nc1cnn(C23CC4CC(CC(C4)C2)C3)c1)c1cnn2c(C(F)(F)F)cc(-c3ccco3)nc12,inconclusive: 53.3%
4,CCCn1c(SCC(=O)NC(=O)NCc2ccco2)n[nH]c1=O,inactive: 96.6%
5,CCOC(=O)c1sc2nc(SCC(=O)NCc3ccco3)n(Cc3ccccc3)c(=O)c2c1C,inconclusive: 46%
6,CCOC(=O)N1CCC(NC(=O)c2ccc3c(c2)sc2nc(-c4cccc(OC)c4)cn23)CC1,inconclusive: 49.9%
7,CC(=O)[C@@]1(O)CC[C@H]2[C@@H]3C[C@H](C)C4=CC(=O)CC[C@]4(C)[C@H]3CC[C@@]21C,inconclusive: 2.32%
8,O=C(CC(SCCO)c1ccc2c(c1)OCO2)c1ccco1 (centres undefined),inconclusive: 41.5%
9,CN1CC=C2C(C#N)=C(N)C(C#N)(C#N)C(c3cccc(Cl)c3Cl)C2C1 (centres undefined),inactive: 61.1%
10,O=c1oc2cc(O)ccc2c2oc3cc(O)ccc3c12,inactive: 99.4%
11,Cc1occc1-c1nnc(SCC(=O)N2CCc3ccccc32)o1,active: 3.12%
12,Cc1ccc2nc(NC(=O)C3CCCN(S(=O)(=O)c4cccc5nonc45)C3)sc2c1 (centres undefined),inactive: 76%
13,Cc1cccc(-c2nnc(SCC#N)n2-c2cccc(Cl)c2)c1,inactive: 84.6%
14,CC(CC(=O)NCc1ccccc1)C1CCCO1 (centres undefined),inactive: 93.4%
15,Cc1cc(C)c2c(n1)nn1c(N3CCN(c4ccccc4C)CC3)cc(C)nc21,inconclusive: 73.1%
16,Cn1cc(-c2nc3ccccc3[nH]2)c2ccccc21,inconclusive: 62.2%
17,CCCCC(=O)O[C@H]1CC[C@H]2[C@@H]3CCc4cc(O)ccc4[C@H]3CC[C@]12C,inconclusive: 19.7%
18,CCCn1c(N2CCN(CC(=O)NCc3cccs3)CC2)nc2ccccc21,inconclusive: 59.9%
19,C=CCn1c(N)c(C(=O)OC(C)(C)C)c2nc3ccccc3nc21,inconclusive: 50.8%
20,CN1CCN(c2ccc(Cl)cc2NC(=O)c2cccc(S(=O)(=O)N(C)C)c2)CC1,inconclusive: 67.9%

row,Compound,viability
1,CC(=O)O[C@]1(C(C)=O)CC[C@H]2[C@@H]3C=C(Cl)C4=CC(=O)CC[C@]4(C)[C@H]3CC[C@@]21C,inconclusive: 31.2%
2,CSc1nc(N)nc(SCCS(=O)(=O)c2ccc(Cl)cc2)c1C#N,inconclusive: 26.9%
3,C=CS(=O)(=O)c1ccc(Oc2ccc(S(=O)(=O)C=C)cc2)cc1,active: 1.27%
4,O=c1[nH]c(=O)n([C@H]2C[C@H](O)[C@@H](CO)O2)cc1F,inconclusive: 16.4%
5,Cc1ccccc1OCCCN1C(=O)C(=O)c2cccc(C)c21,inconclusive: 33%
6,COC(=O)c1ccc(NC2(C#N)C(=O)Nc3ccccc32)cc1 (centres undefined),inconclusive: 42.1%
7,CN(C(=O)c1ccco1)c1nnc(C23CC4CC(CC(C4)C2)C3)s1,inactive: 75.9%
8,COc1ccc2cc(C(c3nnnn3C(C)(C)C)N3CCc4ccccc4C3)c(=O)[nH]c2c1 (centres undefined),inconclusive: 49.1%
9,Cc1cc(C)n2cc(CSc3nnnn3-c3ccc(Cl)cc3)nc2n1,inactive: 97.6%
10,CN(C)CCCN1c2ccccc2Sc2ccc(Cl)cc21,inconclusive: 1.67%
11,CCOc1cc(-c2nc3ccccn3c2NCC2CCCO2)ccc1O (centres undefined),active: 40.7%
12,COCCN(C(=O)CCC(=O)Nc1ccccn1)C(C(=O)NC1CCCC1)c1ccc(OC)cc1 (centres undefined),inactive: 111%
13,COc1ccc(-c2ccc(-c3noc(-c4cccs4)n3)c(OC)n2)cc1,inconclusive: 64.6%
14,O=c1c2cn[nH]c2nc(SCc2ccc3c(c2)OCCO3)n1-c1ccccc1,inconclusive: 61.7%
15,CC(=O)[C@H]1CC[C@H]2[C@@H]3CCC4=CC(=O)CC[C@]4(C)[C@H]3CC[C@]12C,inconclusive: 47.2%
16,COc1ncnc2c1N=C1CC(C)(C)CC(N)=C1S2,inactive: 87.5%
17,CC(=O)O[C@@]12CO[C@@H]1C[C@H](O)[C@@]1(C)C(=O)[C@H](O)C3=C(C)[C@@H](OC(=O)[C@H](O)[C@@H](NC(=O)OC(C)(C)C)c4ccccc4)C[C@](O)([C@@H](OC(=O)c4ccccc4)[C@H]21)C3(C)C,inconclusive: 19.2%
18,CCn1c(CNc2ccc(OC)cc2)nnc1SCC(=O)c1ccc(OC)cc1,inconclusive: 50.8%
19,COc1ccccc1-c1c(C)nn2c(N3CCC4(CC3)OCCO4)cc(C)nc12,inconclusive: 60%
